From the supplement of paper PMC8728848
This is one part of the list.

Key:
Assay in all cases: glycan array binding signal (z-score within array); higher = stronger binding
Conditions in all cases: glycan notation: IUPAC condensed, linker removed
[1] = target: GlcNAc(b1-4)[GlcNAc(b1-6)]GalNAc
Method in brief: (§1)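 Negative Z-scores can be read as non-binding. The Z-score is calculated within each array and then averaged across arrays of one protein sequence at different concentrations or buffers and across linkers. Arrays, 3228 in all, were curated from the Consortium for Functional Glycomics database and kept only where the protein sequence was available.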

[2] = target: GlcNAc(b1-6)Gal(b1-4)GlcNAc
Method in brief: as §1

GlcNAc(b1-6)GalNAc = target: GlcNAc(b1-6)GalNAc
Method in brief: as §1

Kdn(a2-3)Gal(b1-3)GlcNAc = target: Kdn(a2-3)Gal(b1-3)GlcNAc
Method in brief: as §1

Kdn(a2-3)Gal(b1-4)GlcNAc = target: Kdn(a2-3)Gal(b1-4)GlcNAc
Method in brief: as §1

[3] = target: Man(a1-2)Man(a1-2)Man(a1-3)Man
Method in brief: as §1

[4] = target: Man(a1-2)Man(a1-2)Man(a1-3)[Man(a1-2)Man(a1-3)[Man(a1-2)Man(a1-6)]Man(a1-6)]Man(b1-4)GlcNAc(b1-4)GlcNAc
Method in brief: as §1

[5] = target: Man(a1-2)Man(a1-2)Man(a1-3)[Man(a1-2)Man(a1-6)[Man(a1-3)]Man(a1-6)]Man(b1-4)GlcNAc(b1-4)GlcNAc
Method in brief: as §1

[6] = target: Man(a1-2)Man(a1-2)Man(a1-6)[Man(a1-3)]Man
Method in brief: as §1

Man(a1-2)Man(a1-3)Man = target: Man(a1-2)Man(a1-3)Man
Method in brief: as §1

[7] = target: Man(a1-2)Man(a1-3)[Man(a1-2)Man(a1-6)]Man
Method in brief: as §1

[8] = target: Man(a1-2)Man(a1-3)[Man(a1-3)[Man(a1-6)]Man(a1-6)]Man(b1-4)GlcNAc(b1-4)GlcNAc
Method in brief: as §1

[9] = target: Man(a1-2)Man(a1-3)[Man(a1-6)]Man(a1-6)[Man(a1-2)Man(a1-3)]Man(b1-4)GlcNAc(b1-4)GlcNAc
Method in brief: as §1

Man(a1-3)[Man(a1-6)]Man = target: Man(a1-3)[Man(a1-6)]Man
Method in brief: as §1

[10] = target: Man(a1-3)[Man(a1-6)]Man(a1-6)[Man(a1-3)]Man(b1-4)GlcNAc(b1-4)GlcNAc
Method in brief: as §1

[11] = target: Man(a1-3)[Man(a1-6)]Man(b1-4)GlcNAc(b1-4)GlcNAc
Method in brief: as §1

Man(b1-4)GlcNAc = target: Man(b1-4)GlcNAc
Method in brief: as §1

Neu5Ac(a2-3)Gal = target: Neu5Ac(a2-3)Gal
Method in brief: as §1

[12] = target: Neu5Ac(a2-3)Gal(b1-3)GalNAc
Method in brief: as §1

[13] = target: Neu5Ac(a2-3)Gal(b1-3)GalNAc(b1-3)Gal(a1-4)Gal(b1-4)Glc
Method in brief: as §1

[14] = target: Neu5Ac(a2-3)Gal(b1-3)GalNAc(b1-4)[Neu5Ac(a2-3)]Gal(b1-4)Glc
Method in brief: as §1

[15] = target: Neu5Ac(a2-3)Gal(b1-3)GalNAc6S
Method in brief: as §1

[16] = target: Neu5Ac(a2-3)Gal(b1-3)GlcNAc
Method in brief: as §1

[17] = target: Neu5Ac(a2-3)Gal(b1-3)GlcNAc(b1-3)Gal(b1-4)GlcNAc
Method in brief: as §1

[18] = target: Neu5Ac(a2-3)Gal(b1-3)GlcNAc6S
Method in brief: as §1

[19] = target: Neu5Ac(a2-3)Gal(b1-3)[Fuc(a1-4)]GlcNAc
Method in brief: as §1

[20] = target: Neu5Ac(a2-3)Gal(b1-3)[Fuc(a1-4)]GlcNAc(b1-3)Gal(b1-4)[Fuc(a1-3)]GlcNAc
Method in brief: as §1

[21] = target: Neu5Ac(a2-3)Gal(b1-3)[Neu5Ac(a2-3)Gal(b1-4)]GlcNAc
Method in brief: as §1

[22] = target: Neu5Ac(a2-3)Gal(b1-3)[Neu5Ac(a2-6)]GalNAc
Method in brief: as §1

Neu5Ac(a2-3)Gal(b1-4)Glc = target: Neu5Ac(a2-3)Gal(b1-4)Glc
Method in brief: as §1

[23] = target: Neu5Ac(a2-3)Gal(b1-4)GlcNAc
Method in brief: as §1

[24] = target: Neu5Ac(a2-3)Gal(b1-4)GlcNAc(b1-3)Gal(b1-4)GlcNAc
Method in brief: as §1

[25] = target: Neu5Ac(a2-3)Gal(b1-4)GlcNAc(b1-3)Gal(b1-4)GlcNAc(b1-3)Gal(b1-4)GlcNAc
Method in brief: as §1

[26] = target: Neu5Ac(a2-3)Gal(b1-4)GlcNAc(b1-3)Gal(b1-4)[Fuc(a1-3)]GlcNAc
Method in brief: as §1

[27] = target: Neu5Ac(a2-3)Gal(b1-4)GlcNAc6S
Method in brief: as §1

[28] = target: Neu5Ac(a2-3)Gal(b1-4)[Fuc(a1-3)]GlcNAc
Method in brief: as §1

[29] = target: Neu5Ac(a2-3)Gal(b1-4)[Fuc(a1-3)]GlcNAc(b1-3)Gal
Method in brief: as §1

[30] = target: Neu5Ac(a2-3)Gal(b1-4)[Fuc(a1-3)]GlcNAc(b1-3)Gal(b1-4)GlcNAc
Method in brief: as §1

[31] = target: Neu5Ac(a2-3)Gal(b1-4)[Fuc(a1-3)]GlcNAc(b1-3)Gal(b1-4)[Fuc(a1-3)]GlcNAc(b1-3)Gal(b1-4)[Fuc(a1-3)]GlcNAc
Method in brief: as §1

[32] = target: Neu5Ac(a2-3)Gal(b1-4)[Fuc(a1-3)]GlcNAc6S
Method in brief: as §1

[33] = target: Neu5Ac(a2-3)Gal6S(b1-4)GlcNAc
Method in brief: as §1

[34] = target: Neu5Ac(a2-3)Gal6S(b1-4)[Fuc(a1-3)]GlcNAc
Method in brief: as §1

Neu5Ac(a2-3)GalNAc = target: Neu5Ac(a2-3)GalNAc
Method in brief: as §1

[35] = target: Neu5Ac(a2-3)GalNAc(b1-4)GlcNAc
Method in brief: as §1

[36] = target: Neu5Ac(a2-3)[GalNAc(b1-4)]Gal(b1-4)Glc
Method in brief: as §1

[37] = target: Neu5Ac(a2-3)[GalNAc(b1-4)]Gal(b1-4)GlcNAc
Method in brief: as §1

[38] = target: Neu5Ac(a2-3)[Neu5Ac(a2-6)]GalNAc
Method in brief: as §1

[39] = target: Neu5Ac(a2-6)Gal(b1-4)GlcNAc
Method in brief: as §1

[40] = target: Neu5Ac(a2-6)Gal(b1-4)GlcNAc(b1-2)Man(a1-3)[Neu5Ac(a2-6)Gal(b1-4)GlcNAc(b1-2)Man(a1-6)]Man(b1-4)GlcNAc(b1-4)GlcNAc
Method in brief: as §1

[41] = target: Neu5Ac(a2-6)Gal(b1-4)GlcNAc(b1-3)Gal(b1-4)GlcNAc
Method in brief: as §1

[42] = target: Neu5Ac(a2-6)Gal(b1-4)GlcNAc(b1-3)Gal(b1-4)[Fuc(a1-3)]GlcNAc(b1-3)Gal(b1-4)[Fuc(a1-3)]GlcNAc
Method in brief: as §1

[43] = target: Neu5Ac(a2-6)Gal(b1-4)GlcNAc6S
Method in brief: as §1

Neu5Ac(a2-6)GalNAc = target: Neu5Ac(a2-6)GalNAc
Method in brief: as §1

[44] = target: Neu5Ac(a2-6)GalNAc(b1-4)GlcNAc
Method in brief: as §1

Neu5Ac(a2-8)Neu5Ac = target: Neu5Ac(a2-8)Neu5Ac
Method in brief: as §1

[45] = target: Neu5Ac(a2-8)Neu5Ac(a2-3)Gal(b1-4)Glc
Method in brief: as §1

[46] = target: Neu5Ac(a2-8)Neu5Ac(a2-3)[GalNAc(b1-4)]Gal(b1-4)Glc
Method in brief: as §1

[47] = target: Neu5Ac(a2-8)Neu5Ac(a2-8)Neu5Ac
Method in brief: as §1

[48] = target: Neu5Ac(a2-8)Neu5Ac(a2-8)Neu5Ac(a2-3)Gal(b1-4)Glc
Method in brief: as §1

[49] = target: Neu5Ac(a2-8)Neu5Ac(a2-8)Neu5Ac(a2-3)[GalNAc(b1-4)]Gal(b1-4)Glc
Method in brief: as §1

[50] = target: Neu5Ac(a2-8)Neu5Ac(a2-8)Neu5Ac(a2-8)Neu5Ac(a2-3)[GalNAc(b1-4)]Gal(b1-4)Glc
Method in brief: as §1

[51] = target: Neu5Ac9Ac(a2-6)Gal(b1-4)GlcNAc
Method in brief: as §1

[52] = target: Neu5Gc(a2-3)Gal(b1-3)GlcNAc
Method in brief: as §1

[53] = target: Neu5Gc(a2-3)Gal(b1-3)[Fuc(a1-4)]GlcNAc
Method in brief: as §1

Neu5Gc(a2-3)Gal(b1-4)Glc = target: Neu5Gc(a2-3)Gal(b1-4)Glc
Method in brief: as §1

[54] = target: Neu5Gc(a2-3)Gal(b1-4)GlcNAc
Method in brief: as §1

[55] = target: Neu5Gc(a2-3)Gal(b1-4)[Fuc(a1-4)]GlcNAc
Method in brief: as §1

[56] = target: Neu5Gc(a2-6)Gal(b1-4)GlcNAc
Method in brief: as §1

Neu5Gc(a2-6)GalNAc = target: Neu5Gc(a2-6)GalNAc
Method in brief: as §1

B1: CVNH0 (Neurospora crassa), Q7S6U4 (protein)
chain: GSHIGPYMSFHVTAEDARIEVRDNRTILFARLRREDGEWNDASYELDQIIGNNDGHFQWGGQNFTETAEDIRFHPKEGAAEQPILRARLRDCNGEFHDRDVNLTEIVENVNGEFQAKF
glycan array binding signal (z-score) [1]: -0.417
glycan array binding signal (z-score) [2]: -0.407
glycan array binding signal (z-score) (GlcNAc(b1-6)GalNAc): 0.422
glycan array binding signal (z-score) (Kdn(a2-3)Gal(b1-3)GlcNAc): -0.44
glycan array binding signal (z-score) (Kdn(a2-3)Gal(b1-4)GlcNAc): -0.442
glycan array binding signal (z-score) [3]: 2.87
glycan array binding signal (z-score) [4]: 3.89
glycan array binding signal (z-score) [5]: 0.597
glycan array binding signal (z-score) [6]: 3.68
glycan array binding signal (z-score) (Man(a1-2)Man(a1-3)Man): -0.112
glycan array binding signal (z-score) [7]: 4.06
glycan array binding signal (z-score) [8]: -0.376
glycan array binding signal (z-score) [9]: -0.132
glycan array binding signal (z-score) (Man(a1-3)[Man(a1-6)]Man): -0.235
glycan array binding signal (z-score) [10]: -0.298
glycan array binding signal (z-score) [11]: -0.429
glycan array binding signal (z-score) (Man(b1-4)GlcNAc): -0.435
glycan array binding signal (z-score) (Neu5Ac(a2-3)Gal): -0.431
glycan array binding signal (z-score) [12]: -0.438
glycan array binding signal (z-score) [13]: -0.282
glycan array binding signal (z-score) [14]: -0.439
glycan array binding signal (z-score) [15]: -0.449
glycan array binding signal (z-score) [16]: -0.423
glycan array binding signal (z-score) [17]: -0.43
glycan array binding signal (z-score) [18]: 0.204
glycan array binding signal (z-score) [19]: -0.442
glycan array binding signal (z-score) [20]: 2.62
glycan array binding signal (z-score) [21]: -0.411
glycan array binding signal (z-score) [22]: -0.437
glycan array binding signal (z-score) (Neu5Ac(a2-3)Gal(b1-4)Glc): 0.741
glycan array binding signal (z-score) [23]: -0.323
glycan array binding signal (z-score) [24]: -0.351
glycan array binding signal (z-score) [25]: -0.353
glycan array binding signal (z-score) [26]: -0.434
glycan array binding signal (z-score) [27]: 0.502
glycan array binding signal (z-score) [28]: -0.396
glycan array binding signal (z-score) [29]: -0.427
glycan array binding signal (z-score) [30]: -0.17
glycan array binding signal (z-score) [31]: -0.226
glycan array binding signal (z-score) [32]: -0.433
glycan array binding signal (z-score) [33]: -0.439
glycan array binding signal (z-score) [34]: -0.401
glycan array binding signal (z-score) (Neu5Ac(a2-3)GalNAc): 0.426
glycan array binding signal (z-score) [35]: -0.438
glycan array binding signal (z-score) [36]: -0.424
glycan array binding signal (z-score) [37]: -0.084
glycan array binding signal (z-score) [38]: -0.407
glycan array binding signal (z-score) [39]: -0.373
glycan array binding signal (z-score) [40]: -0.408
glycan array binding signal (z-score) [41]: -0.415
glycan array binding signal (z-score) [42]: 0.227
glycan array binding signal (z-score) [43]: -0.448
glycan array binding signal (z-score) (Neu5Ac(a2-6)GalNAc): -0.388
glycan array binding signal (z-score) [44]: -0.229
glycan array binding signal (z-score) (Neu5Ac(a2-8)Neu5Ac): -0.416
glycan array binding signal (z-score) [45]: -0.439
glycan array binding signal (z-score) [46]: -0.418
glycan array binding signal (z-score) [47]: -0.434
glycan array binding signal (z-score) [48]: -0.359
glycan array binding signal (z-score) [49]: -0.392
glycan array binding signal (z-score) [50]: -0.44
glycan array binding signal (z-score) [51]: -0.431
glycan array binding signal (z-score) [52]: -0.433
glycan array binding signal (z-score) [53]: 0.164
glycan array binding signal (z-score) (Neu5Gc(a2-3)Gal(b1-4)Glc): -0.422
glycan array binding signal (z-score) [54]: -0.419
glycan array binding signal (z-score) [55]: 0.562
glycan array binding signal (z-score) [56]: -0.367
glycan array binding signal (z-score) (Neu5Gc(a2-6)GalNAc): -0.407
